PubChem BioAssay AID504333 (National Center for Advancing Translational Sciences (NCATS), 2011)
Screen size: about 360,000 compounds; about 16,000 (4.4%) were called active. The shares of active, inactive and inconclusive entries below differ from those in the screen. Calls come from the whole dose curve; as a rule, active = well fitted inhibition curve with a large enough effect; inconclusive = small, poorly fitted or top-dose-only effect; inactive = no such curve, though single readings can be large or run the other way. A potency beside an inconclusive call is a rough fit, not a confirmed value.

Target: Bromodomain adjacent to zinc finger domain protein 2B (Homo sapiens) (UniProt Q9UIF8)
Assay: qHTS Assay for Inhibitors of BAZ2B; note: nearly all actives have a fitted effect of over 60% in size
Conditions: AlphaScreen BAZ2B-H3K14Ac peptide displacement; activity change, negative = inhibition: at 114 µM (top of the series) unless noted
In short: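 BAZ2B (50 nM) with biotin-H3(5-23)K14Ac peptide (50 nM) in PBS pH 7.4, 0.01% Tween-20, preformed 30 min, then compound 30 min at room temperature; top concentration 110uM. AlphaScreen streptavidin donor/nickel chelate acceptor beads (10 ug/mL final), 20 min dark, signal read.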
% is set by controls: 0 for no effect and ±100 for the full control effect; potency is the fitted concentration of half-maximal effect; tags give direction and shape of the fitted curve.

Sequence of UniProt Q9UIF8 (Q9UIF8 whole entry, looked up, the tested form may be a part): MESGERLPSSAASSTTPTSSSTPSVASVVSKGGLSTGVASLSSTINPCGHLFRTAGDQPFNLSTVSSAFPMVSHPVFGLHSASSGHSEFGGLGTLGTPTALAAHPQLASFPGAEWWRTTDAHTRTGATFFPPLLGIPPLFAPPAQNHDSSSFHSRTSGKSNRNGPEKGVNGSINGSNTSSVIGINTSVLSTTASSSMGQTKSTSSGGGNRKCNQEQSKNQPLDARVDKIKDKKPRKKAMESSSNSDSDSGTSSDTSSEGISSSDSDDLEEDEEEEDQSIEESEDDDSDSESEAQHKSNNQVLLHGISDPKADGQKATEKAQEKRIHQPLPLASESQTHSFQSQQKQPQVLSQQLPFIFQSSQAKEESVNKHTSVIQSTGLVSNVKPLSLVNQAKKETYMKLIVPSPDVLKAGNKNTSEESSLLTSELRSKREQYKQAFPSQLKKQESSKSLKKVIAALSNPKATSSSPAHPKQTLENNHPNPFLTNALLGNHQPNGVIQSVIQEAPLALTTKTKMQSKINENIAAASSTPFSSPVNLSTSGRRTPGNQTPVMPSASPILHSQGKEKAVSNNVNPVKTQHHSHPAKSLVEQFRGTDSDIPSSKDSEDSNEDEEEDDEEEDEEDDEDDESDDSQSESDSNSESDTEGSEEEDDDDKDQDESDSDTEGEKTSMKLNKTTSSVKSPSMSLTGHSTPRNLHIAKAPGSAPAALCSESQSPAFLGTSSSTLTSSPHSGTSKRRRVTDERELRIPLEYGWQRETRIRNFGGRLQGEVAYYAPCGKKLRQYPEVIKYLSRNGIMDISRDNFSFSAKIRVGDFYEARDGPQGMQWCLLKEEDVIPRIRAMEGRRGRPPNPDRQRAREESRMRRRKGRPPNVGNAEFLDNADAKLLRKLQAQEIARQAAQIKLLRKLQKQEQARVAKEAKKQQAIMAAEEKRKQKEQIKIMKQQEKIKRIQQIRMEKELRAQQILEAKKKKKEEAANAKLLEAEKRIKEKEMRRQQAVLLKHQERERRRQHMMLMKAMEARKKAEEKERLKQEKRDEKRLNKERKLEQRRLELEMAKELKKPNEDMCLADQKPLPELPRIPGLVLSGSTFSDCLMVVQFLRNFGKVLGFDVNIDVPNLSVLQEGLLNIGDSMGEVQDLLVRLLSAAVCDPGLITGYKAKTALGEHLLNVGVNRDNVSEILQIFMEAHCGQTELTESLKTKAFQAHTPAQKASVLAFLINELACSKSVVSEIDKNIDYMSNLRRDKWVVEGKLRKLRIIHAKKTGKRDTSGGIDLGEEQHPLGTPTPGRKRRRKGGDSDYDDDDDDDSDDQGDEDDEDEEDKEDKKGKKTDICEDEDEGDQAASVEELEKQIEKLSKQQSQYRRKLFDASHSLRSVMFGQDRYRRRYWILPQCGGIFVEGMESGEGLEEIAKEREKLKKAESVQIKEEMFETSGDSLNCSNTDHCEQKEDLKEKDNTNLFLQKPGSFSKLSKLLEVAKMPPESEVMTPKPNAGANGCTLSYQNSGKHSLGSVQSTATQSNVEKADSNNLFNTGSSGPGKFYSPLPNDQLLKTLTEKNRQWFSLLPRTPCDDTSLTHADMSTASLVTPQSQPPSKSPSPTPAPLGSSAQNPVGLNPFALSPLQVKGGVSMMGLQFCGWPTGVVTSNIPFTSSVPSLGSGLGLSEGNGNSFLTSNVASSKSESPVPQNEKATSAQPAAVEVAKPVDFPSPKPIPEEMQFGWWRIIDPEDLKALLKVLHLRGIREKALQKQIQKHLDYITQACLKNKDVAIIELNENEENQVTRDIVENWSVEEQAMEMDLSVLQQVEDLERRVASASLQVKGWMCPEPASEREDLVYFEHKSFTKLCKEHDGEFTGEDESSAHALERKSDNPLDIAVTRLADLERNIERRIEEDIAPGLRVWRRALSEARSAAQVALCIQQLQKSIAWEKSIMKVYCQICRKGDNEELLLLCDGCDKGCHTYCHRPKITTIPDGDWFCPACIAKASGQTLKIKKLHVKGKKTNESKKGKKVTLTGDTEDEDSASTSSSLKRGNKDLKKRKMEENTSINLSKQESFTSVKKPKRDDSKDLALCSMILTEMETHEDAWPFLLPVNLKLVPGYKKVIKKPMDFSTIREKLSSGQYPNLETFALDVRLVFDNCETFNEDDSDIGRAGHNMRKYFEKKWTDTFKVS

| Compound | Potency | activity change, negative = inhibition |
| --- | --- | --- |
| COc1cc2nc3occc3c(OC)c2cc1OC | inconclusive: 89.1 µM [inhibitor, single point] |  |
| CCn1cc(C(=O)O)c(=O)c2cc(OC)ccc21 | inconclusive: 89.1 µM [inhibitor, single point] |  |
| Cc1ccc2nc(SCC(=O)Nc3ccc(C)c([N+](=O)[O-])c3)[nH]c2c1 | inconclusive: 79.4 µM [inhibitor, single point] |  |
| O=C(CCn1cccc1)Nc1cc(F)ccc1F | inconclusive: 79.4 µM [inhibitor, single point] |  |
| O=C(NCCCN1CCOCC1)c1cc2c([nH]c3ccccc32)c(-c2cccc(Br)c2)n1 | inconclusive: 56.2 µM [inhibitor, partial curve] |  |
| COc1ccc2c(CC(=O)NCc3cccs3)coc2c1 | inconclusive: 79.4 µM [inhibitor, single point] |  |
| COc1cc(/C=C/C(=O)NNc2c(F)c(F)cc(F)c2F)ccc1OC(F)F | inconclusive: 89.1 µM [inhibitor, single point] |  |
| CCc1cc(/C(Cc2ccccn2)=N\Nc2ccccc2)c(O)cc1O | active: 50.1 µM |  |
| O=C(Nc1ccccc1C(=O)O)c1ccccc1 | inconclusive: 89.1 µM [inhibitor, single point] |  |
| CCn1ccnc1CN1CCc2c([nH]c3ccccc23)C1CC(C)C (centres undefined) | inconclusive: 63.1 µM [inhibitor, partial curve, poor fit] |  |
| Cc1cccc[n+]1C1C(c2ccccc2)C(C#N)=C(C(=C=[N-])C#N)NC1(O)C1CC1 (centres undefined) |  | inactive: -34.6% |
| COc1ccc2nc(NNC(=O)c3cc(=O)c4ccccc4o3)sc2c1 | active: 50.1 µM |  |
| Cc1ccc(NC(=O)N2CC3CCCN3c3ccccc32)cc1Cl (centres undefined) | active: 28.2 µM |  |
| Cc1csc(SCC(=O)Nc2ccccc2[N+](=O)[O-])n1 | inconclusive: 79.4 µM [inhibitor, partial curve] |  |
| Cc1ccc(Nc2nnns2)cc1 |  | inactive: -37.2% |
| CCN1C(C)=C(C)S/C1=C1\SC(=S)N(N)C1=O |  | inactive: -19.3% |
| Cc1cc(C)n(CCc2nc3c4ccccc4nc(SCc4ccc(F)cc4)n3n2)n1 |  | inactive: -5.76% |
| COc1ccc(S(=O)(=O)N2CCN(c3ccc(F)cc3)CC2)cc1OC | inconclusive: 89.1 µM [inhibitor, single point] |  |
| COc1ccc(Nc2c(-c3ccc(C)cc3)nc3cnccn23)cc1 | inconclusive: 50.1 µM [inhibitor, partial curve] |  |
| COCCNC(=S)N(CCc1c(C)[nH]c2ccc(C)cc12)Cc1ccco1 | active: 35.5 µM |  |
| C=C(C)C(=O)Nc1cccc(C2=NOC3(C2)C[C@@H](C(N)=O)N(C(=O)[C@H]2CCC(=O)N2)C3)c1 (some centres undefined) | inconclusive: 79.4 µM [inhibitor, single point] |  |
| COc1cccc(C(Nc2ccccn2)c2c(NC(=O)c3ccco3)sc(C)c2C)c1 (centres undefined) | inconclusive: 31.6 µM [inhibitor, partial curve] |  |

| Compound | Potency | activity change, negative = inhibition |
| --- | --- | --- |
| Cc1ccc(S(=O)(=O)NC(=O)NN2CCCCCC2)cc1 | inconclusive: 79.4 µM [inhibitor, single point] |  |
| COc1cc(CNc2ccc3[nH]c(=O)[nH]c3c2)ccc1OCc1ccccc1 | inconclusive: 3.16 µM [inhibitor, full curve] |  |
| CN(C)c1cccc2c1c(NC(=O)c1ccc(F)cc1)nn2C |  | inactive: -9.03% |
| Cc1ccc(NC(=O)Cn2c(=O)c3ccc(Cl)cc3n3nncc23)cc1 |  | inactive: 4.48% |
| COc1ccc(-c2nnc(Sc3nc4ccccc4o3)c3ccccc23)cc1 | inconclusive: 89.1 µM [inhibitor, single point] |  |
| COC(=O)c1ccc(N2CCc3ccccc32)c([N+](=O)[O-])c1 | active: 7.94 µM |  |
| O=S(=O)(Oc1ccc(C(=S)N2CCOCC2)cc1)c1ccc(Cl)cc1 |  | inactive: 2.68% |
| O=C(Nc1ccccc1)c1ccccc1Oc1ccc(C(F)(F)F)cc1[N+](=O)[O-] | inconclusive: 79.4 µM [inhibitor, single point] |  |
| Cc1cc(C)c2nc(N3CCC(C(=O)NCc4cccnc4)CC3)sc2c1 | inconclusive: 79.4 µM [inhibitor, single point] |  |
| CCOc1cc(/C=C2\SC(=NC)N(C)C2=O)c(Br)cc1OC(C)=O | inconclusive: 89.1 µM [inhibitor, single point] |  |
| COC(=O)c1ccc2c(=O)n(CC3CCCO3)c(=S)[nH]c2c1 (centres undefined) | inconclusive: 89.1 µM [inhibitor, single point] |  |
| COc1ccc(C2c3[nH]c4ccccc4c3CCN2Cc2ccoc2)c(F)c1 (centres undefined) | inconclusive: 22.4 µM [inhibitor, partial curve] |  |
| Cc1nc(-c2ccc(S(=O)(=O)N3CCN(c4cccc(C(F)(F)F)c4)CC3)cc2)co1 | inconclusive: 20 µM [inhibitor, full curve] |  |
| Cc1ccc(CNC(=O)C(=O)Nc2nccs2)cc1 | inconclusive: 89.1 µM [inhibitor, single point] |  |
| Cc1cc(/C=C2/C(=N)N3C(=NC2=O)SN=C3S(C)(=O)=O)c(C)n1-c1ccccc1F | active: 44.7 µM |  |
| Cc1cc(C)cc(N=C2SC(CC(=O)Nc3ccccc3)C(=O)N2CCN2CCOCC2)c1 (centres undefined) | inconclusive: 44.7 µM [inhibitor, partial curve] |  |
| Cc1csc(NC(=O)CSc2nc3ccccc3s2)n1 | inconclusive: 89.1 µM [inhibitor, single point] |  |
| CC(CCN1CCN(c2ccccc2)CC1)c1ccccc1 (centres undefined) | inconclusive: 89.1 µM [inhibitor, single point] |  |
| Cc1ccc([N+](=O)[O-])cc1S(=O)(=O)n1ccnc1C | inconclusive: 50.1 µM [inhibitor, partial curve] |  |
| Cc1ccc(/C=N/NC(=O)Nc2ccccc2)o1 | inconclusive: 89.1 µM [inhibitor, single point] |  |
| Cc1ccc(CN(Cc2ccco2)C(=O)c2ccccc2Br)o1 | inconclusive: 79.4 µM [inhibitor, single point] |  |
| COc1cc(/C=N/NC(=O)Cc2c[nH]c3ccccc23)cc(OC)c1OC | inconclusive: 70.8 µM [inhibitor, single point] |  |
